Results as given in PubChem BioAssay AID624171 (National Center for Advancing Translational Sciences (NCATS), 2012).
Screen size: about 410,000 compounds; about 1,200 (0.29%) were called active. The inconclusive results got no clear call from the source; some entries with a clear call stand among them for comparison. Calls come from the whole dose curve; as a rule, active = well fitted activation curve with a large enough effect; inconclusive = small, poorly fitted or top-dose-only effect; inactive = flat fitted curve, though single readings scatter. Where the call is inconclusive, the potency comes from a doubtful curve fit.

Experiment: qHTS of Nrf2 Activators; note: nearly all actives have a fitted effect of over 65% in size
Settings: AREc32 ARE-luciferase reporter (MCF7-derived line), luminescence, 24 h; series mostly up to 46.1 µM
Summary of the method: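 Cells of the AREc32 ARE-luciferase line are plated in OPTI-MEM containing 5% FBS and left overnight at 37 deg C. Compounds are pinned in, incubation continues 24 hr, and firefly luciferase signal is then measured.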
Potency is the fitted concentration of half-maximal effect; tags give direction and shape of the fitted curve.

Row | Structure (SMILES) | Potency
1 | S=C(NCc1ccco1)Nc1ccccn1 | inconclusive: 7.08 µM [activator, full curve, poor fit]
2 | COc1ccccc1/C=C/C=C1\Oc2c(ccc(O)c2CN2CCN(CCO)CC2)C1=O | inconclusive: 28.2 µM [activator, single point]
3 | Cc1ccc(-n2nc3ccc(NC(=O)/C=C/c4ccco4)cc3n2)cc1C | inconclusive: 7.94 µM [activator, partial curve]
4 | O=C(NCc1ccco1)Nc1cccc([N+](=O)[O-])c1 | inconclusive: 15.8 µM [activator, partial curve, poor fit]
5 | Cc1oc(=O)c(NC(=O)c2ccccc2)cc1C(=O)c1ccccc1 | inconclusive: 15.8 µM [activator, single point]
6 | Cc1nc2nc(NC(=O)c3ccc(F)cc3)[nH]n2c(=O)c1Cc1ccccc1 | inactive
7 | Cc1ccc(C)c(N2CCN(c3nccn4nc(-c5ccc(Br)cc5)cc34)CC2)c1 | inactive
8 | Cc1[nH]c2ccccc2c1C(O)CN1CCN(c2cccc(C(F)(F)F)c2)CC1 (stereo not given) | inconclusive: 25.1 µM [activator, single point]
9 | Cc1nc2c(c(C)nn2-c2ccccc2)c(C)c1CCC(=O)Nc1ccc(F)cc1 | inactive
10 | O=C(COC(=O)/C=C/c1ccc2ccccc2n1)NNC(=O)c1ccc([N+](=O)[O-])cc1 | inconclusive: 22.4 µM [activator, single point]
11 | O=C(Nc1noc2ccccc12)c1c(F)cccc1F | inconclusive: 3.16 µM [activator, partial curve, poor fit]
12 | CCN1/C(=C/C(=O)c2ccco2)Sc2ccccc21 | inconclusive: 0.562 µM [activator, full curve, poor fit]
13 | CCOc1ccccc1NC(=O)C1COc2ccccc2O1 (stereo not given) | active: 6.31 µM
14 | COc1cc(OC)cc(C(=O)NCC(=O)N2CC=C(c3ccccc3)CC2)c1 | inactive
15 | CC(=O)Nc1ccc(C=CC=Cc2cccc([N+](=O)[O-])c2)cc1 | inconclusive: 28.2 µM [activator, single point]
16 | COc1ccc(C=CC(=O)c2cc(O)ccc2O)cc1 | inconclusive: 17.8 µM [activator, single point]
17 | c1ccc(-c2nc(-c3cccnc3)cs2)cc1 | inconclusive: 15.8 µM [activator, single point]
18 | Cc1cc(NC(=O)CSc2c3c(nc4ccccc24)CCC3)no1 | inconclusive: 31.6 µM [activator, single point]
19 | COc1ccc(OC)c(/C=C/C(=O)N2C(=O)c3cccc(N)c3C2=O)c1 | inconclusive: 22.4 µM [activator, single point]
20 | O=C(c1cnn2c1NC(c1ccco1)CC2C(F)(F)F)N1CCN(c2cccc(Cl)c2)CC1 (stereo not given) | inactive
21 | CCS(=O)(=O)c1nc(S(=O)(=O)c2ccc(C)cc2)c(N2CCC(O)CC2)s1 | inconclusive: 12.6 µM [activator, single point]
22 | O=[N+]([O-])c1cc2no[n+]([O-])c2cc1N1CCCCC1 | inconclusive: 12.6 µM [activator, single point]
23 | O=c1cccccc1NN=C1CCCCC1 | inconclusive: 15.8 µM [activator, single point]
24 | CCCCCCn1c2c(c(=N)c3c1CCC3)CCC2 | inactive
25 | CN(C)CCN(C(=O)c1ccco1)c1nc2c(F)cc(F)cc2s1 | inactive

Row | Structure (SMILES) | Potency
26 | CC1CCN(C(=O)CSc2c3c(nc4ccc(Cl)cc24)CCCC3)CC1 | inconclusive: 22.4 µM [activator, single point]
27 | c1coc(-c2ccnc(-n3cccc3)n2)c1 | inconclusive: 2.82 µM [activator, full curve, poor fit]
28 | CC1(C)CC2CC(C)(CN2S(=O)(=O)c2ccc(C(=O)Nc3cc(S(=O)(=O)N4CCOCC4)ccc3Cl)cc2)C1 (stereo not given) | inactive
29 | O=C(CCNc1ccc(Cl)cc1)c1cccs1 | inconclusive: 31.6 µM [activator, single point]
30 | COc1ccc2nc(NC(=O)c3nc(S(=O)(=O)Cc4ccccc4F)ncc3Cl)sc2c1 | active: 10 µM
31 | CS(=O)(=O)N1CCN(c2ccccc2NC(=O)c2ccc(-c3ccc(Cl)cc3Cl)o2)CC1 | inactive
32 | O=C(c1ccc2c(c1)OCCO2)N1CCN(c2ccc(C(F)(F)F)cn2)CC1 | inactive
33 | FC(F)(F)c1ccccc1Cc1c(-c2cccc(Br)c2)nc2c3ccccc3ccn12 | active: 12.6 µM
34 | Cc1cccnc1NC(=O)c1ccc([N+](=O)[O-])o1 | active: 22.4 µM
35 | COc1ccc(C(=O)O)cc1NC(=S)NC(=O)/C=C/c1ccc(C(C)C)cc1 | inconclusive: 22.4 µM [activator, single point]
36 | COC(=O)C1SCC2C(=O)N(Cc3cccc(C)c3)CC(=O)N21 (stereo not given) | inactive
37 | CC(Oc1ccc(F)cc1)C(=O)Nc1ccccc1C(=O)N1CCCCC1 (stereo not given) | inactive
38 | COc1ccc(NC(=O)c2cc(C(C)=O)n3ccccc23)cc1 | inconclusive: 12.6 µM [activator, single point]
39 | CCOC(=O)N1CCN(C(=O)COc2ccc3c(c2)C(=O)CC(C)(C)O3)CC1 | inactive
40 | O=C(Cn1[nH]c(=O)c2ccccc2c1=O)NCCN1C(=O)S/C(=C\c2ccccc2)C1=O | active: 12.6 µM
41 | CCCCn1cc(S(=O)(=O)c2ccccc2)c(=O)c2cc(F)c(N3CCN(CCC)CC3)cc21 | inactive
42 | Cn1cccc1/C=C1\Cc2ccccc2C1=O | active: 11.2 µM
43 | Cc1[nH]c2ccccc2c1N=Nc1ccc(F)cc1 | inconclusive: 1.26 µM [activator, partial curve, poor fit]
44 | Cc1cc(C)c(C#N)c(Sc2nc(C)c([N+](=O)[O-])c(C)c2C#N)n1 | inconclusive: 5.01 µM [activator, single point]
45 | O=C(/C=C/Nc1ccc(Br)cc1F)c1ccccc1 | inconclusive: 6.31 µM [activator, partial curve, poor fit]
46 | Cc1nnc(SCc2ccccc2)c2cc3sccc3n12 | inactive
47 | CCN(CC)c1ccc2oc(=O)c(C)nc2c1 | inconclusive: 31.6 µM [activator, single point]
48 | Nc1c(-c2nc(-c3cccs3)no2)nnn1-c1ccccc1Cl | inactive
49 | COc1ccc(/C=C2\SC(=S)N(CC(=O)N(C)C3CCS(=O)(=O)C3)C2=O)cc1 (stereo not given) | inactive
50 | CCCCOc1ccc(C(=O)Nc2nnc3n2CCS3)cc1 | inactive

Row | Structure (SMILES) | Potency
51 | O=c1c2ccccc2nc(-c2ccco2)n1/N=C/c1ccco1 | inconclusive: 14.1 µM [activator, partial curve, poor fit]
52 | CCOCCC(=O)Nc1ccc2c(c1)c(=O)n(C)n2C/C=C/c1ccccc1 | inactive
53 | N#CCC(=O)N/N=C/c1ccc(Sc2nc3ccccc3s2)o1 | inconclusive: 22.4 µM [activator, single point]
54 | CS(=O)(=O)Nc1cccc(-c2ccc3nncn3c2)c1 | inactive
55 | Fc1ccc2nc(Nc3nc4c(F)cc(F)cc4s3)sc2c1 | inconclusive: 2.51 µM [activator, full curve, poor fit]
56 | CCN(CC)c1ccc(NS(=O)(=O)c2ccc(-c3cnc(C4CC4)o3)cc2)c(C)c1 | inactive
57 | COc1cc(/C=C/C(=O)c2ccc(NS(=O)(=O)c3ccc(C)cc3)cc2)ccc1OC(F)F | inconclusive: 35.5 µM [activator, single point]
58 | C[C@@H]1CN([C@H](C)CO)C(=O)c2cccc(NC(=O)NC3CCCCC3)c2O[C@@H]1CN(C)C(=O)Nc1ccc(C(F)(F)F)cc1 | inactive
59 | CC(=O)Nc1cc(C)nn1-c1nc2ccccc2s1 | inconclusive: 12.6 µM [activator, partial curve, poor fit]
60 | O=C(NC1CCCC1)c1cc(-c2cccc(Cl)c2)on1 | inconclusive: 20 µM [activator, single point]
61 | Cc1cc(C)c2cc(C#N)c(NCCCNC(=O)c3ccncc3)nc2c1 | inactive
62 | Cc1c(C(=O)c2ccc(Cl)c([N+](=O)[O-])c2)c2ccccn2c1CCC#N | inconclusive: 14.1 µM [activator, single point]
63 | CCOC(=O)C1CCN(Cc2cc(Cl)c3ccccc3c2O)CC1 | inconclusive: 22.4 µM [activator, single point]
64 | CCCCC1C(=O)CC[C@H]2[C@@H]1CC(=O)[C@@H]2C/C=C\CCCC(=O)O (stereo not given in full) | inconclusive: 25.1 µM [activator, single point]
65 | CCOc1ccc2nc(N3CCN(C(=O)c4ccc5c(c4)CCCC5)CC3)sc2c1 | inactive
66 | O=[N+]([O-])c1ccc(/C=N/n2c(CO)nc3ccccc32)s1 | inactive
67 | Cc1ccc2[nH]c(=O)c3cc(C(=O)N(C)c4ccc(Br)cc4)sc3c2c1 | inactive
68 | CSc1ccccc1NC(=O)c1cc(Cl)sc1Cl | inconclusive: 20 µM [activator, single point]
69 | CN(C(=O)COC(=O)c1nc(Cl)c(Cl)c(Cl)c1Cl)C1CCS(=O)(=O)C1 (stereo not given) | active: 12.6 µM
70 | CCOc1nc2c(c(=O)n(C)c(=O)n2C)n1Cc1ccccc1Cl | inactive
71 | COc1cccc(C(=O)NCc2ccco2)c1 | inconclusive: 35.5 µM [activator, partial curve, poor fit]
72 | S=C(NCCc1c[nH]c2ccccc12)NC1CCCCC1 | inactive
73 | CCn1c(Cc2ccccc2)nnc1SCC(=O)Nc1ccccc1O | inconclusive: 20 µM [activator, single point]
74 | CC(NC(=O)CNC(=O)c1ccc2c(c1)OCO2)c1ccc(S(N)(=O)=O)cc1 (stereo not given) | inactive
75 | Cc1cc(C)n2ncc(-c3cccc(Br)c3)c2n1 | inconclusive: 22.4 µM [activator, single point]
